Measured values published in the supplement of paper PMC7826260.
This is one part of the list. Cleavage of a single-stranded DNA pool by Rep nickase domains was read by sequencing (1 h at 37 °C, 3 µM enzyme); the outer parts of the 90-letter strands are left off. Values are log2 of uncut reads against the no-enzyme pool; the lower, the more was cut; hits are not called. Counts are relative to all reads; where an enzyme cuts many sequences, the uncut ones exceed 0.

How the values were obtained:
Experiment in all cases: uncleaved DNA left, log2 of reads against the no-enzyme library (log2 ratio); higher = less cleavage (more negative = more Rep cleavage of the k-mer); sequences stand for … in CTCGTCCG…ACCGGAGA
[1] = system: T1, Rep nickase domain of Muscovy duck circovirus
T1 sequence (residues 1-111, tag not shown): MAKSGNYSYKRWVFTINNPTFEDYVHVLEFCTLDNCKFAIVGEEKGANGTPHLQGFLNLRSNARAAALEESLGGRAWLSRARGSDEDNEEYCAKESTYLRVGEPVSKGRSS
Experimental: (§1)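 A pool of 90-nt single-stranded DNAs with seven random bases just before the constant AC of the nick site (name = the seven bases) was cut by 3 µM recombinant His6-SUMO-tagged Rep nickase domain (300 nM DNA, 50 mM HEPES pH 8.0, 50 mM NaCl, 1 mM MnCl2, 1 h, 37 °C, three replicates). Uncut DNA was amplified and sequenced.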

[2] = system: T2, Rep nickase domain of banana bunchy top virus
T2 sequence (residues 1-94, tag not shown): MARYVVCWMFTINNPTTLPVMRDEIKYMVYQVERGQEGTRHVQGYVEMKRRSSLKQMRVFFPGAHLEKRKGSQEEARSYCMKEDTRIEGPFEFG
Experimental: as §1

[3] = system: T3, Rep nickase domain of cabbage leaf curl virus
T3 sequence (residues 1-116, tag not shown): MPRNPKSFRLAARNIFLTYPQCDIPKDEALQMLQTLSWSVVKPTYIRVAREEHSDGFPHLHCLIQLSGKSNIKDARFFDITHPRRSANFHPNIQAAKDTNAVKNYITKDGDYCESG
Experimental: as §1

[4] = system: T4, Rep nickase domain of chickpea chlorotic dwarf virus
T4 sequence (residues 1-124, tag not shown): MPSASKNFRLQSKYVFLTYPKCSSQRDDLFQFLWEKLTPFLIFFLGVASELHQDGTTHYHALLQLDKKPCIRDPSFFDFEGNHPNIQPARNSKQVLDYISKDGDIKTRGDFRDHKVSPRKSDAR
Experimental: as §1

[5] = system: T5, Rep nickase domain of faba bean necrotic yellows virus
T5 sequence (residues 1-98, tag not shown): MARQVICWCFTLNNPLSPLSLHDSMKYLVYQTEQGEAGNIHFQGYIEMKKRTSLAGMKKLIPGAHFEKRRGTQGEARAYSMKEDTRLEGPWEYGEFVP
Experimental: as §1

[6] = system: T6, Rep nickase domain of maize striate mosaic virus
T6 sequence (residues 1-117, tag not shown): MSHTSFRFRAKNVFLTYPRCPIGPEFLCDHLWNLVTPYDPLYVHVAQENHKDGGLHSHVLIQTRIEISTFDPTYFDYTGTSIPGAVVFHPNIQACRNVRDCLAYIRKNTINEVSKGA
Experimental: as §1

[7] = system: T7, Rep nickase domain of porcine circovirus 2
T7 sequence (residues 2-116, tag not shown): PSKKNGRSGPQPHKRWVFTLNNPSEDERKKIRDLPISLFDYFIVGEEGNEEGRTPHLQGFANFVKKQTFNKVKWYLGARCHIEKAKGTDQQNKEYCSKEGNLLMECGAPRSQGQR
Experimental: as §1

[8] = system: T8, Rep nickase domain of tomato golden mosaic virus
T8 sequence (residues 1-124, tag not shown): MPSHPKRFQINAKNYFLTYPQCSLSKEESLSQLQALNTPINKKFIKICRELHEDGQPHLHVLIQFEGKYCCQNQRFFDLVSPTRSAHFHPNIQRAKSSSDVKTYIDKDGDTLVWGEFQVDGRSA
Experimental: as §1

[9] = system: T9, Rep nickase domain of tomato yellow leaf curl virus
T9 sequence (residues 1-136, tag not shown): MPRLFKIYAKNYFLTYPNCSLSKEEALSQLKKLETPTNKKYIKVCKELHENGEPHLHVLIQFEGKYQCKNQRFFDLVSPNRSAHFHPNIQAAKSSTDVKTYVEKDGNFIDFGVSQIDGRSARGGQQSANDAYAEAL
Experimental: as §1

[10] = system: T10, Rep nickase domain of wheat dwarf virus
T10 sequence (residues 1-137, tag not shown): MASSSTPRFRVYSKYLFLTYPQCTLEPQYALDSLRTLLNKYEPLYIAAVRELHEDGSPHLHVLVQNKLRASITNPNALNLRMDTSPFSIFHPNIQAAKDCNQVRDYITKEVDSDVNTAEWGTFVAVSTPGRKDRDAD
Experimental: as §1

Row | Sequence | uncleaved DNA left (log2) [1] | uncleaved DNA left (log2) [2] | uncleaved DNA left (log2) [3] | uncleaved DNA left (log2) [4] | uncleaved DNA left (log2) [5] | uncleaved DNA left (log2) [6] | uncleaved DNA left (log2) [7] | uncleaved DNA left (log2) [8] | uncleaved DNA left (log2) [9] | uncleaved DNA left (log2) [10]
1 | GAGTCCC | 0.0661 | 0.139 | 0.394 | 0.723 | 0.00389 | 1.35 | -2.38 | 0.0532 | 0.159 | 0.277
2 | ACTCCAG | -0.0174 | -0.00675 | -0.641 | -0.397 | -0.0294 | -1.17 | 0.14 | -0.0521 | 0.0127 | -0.207
3 | AGTGCGA | 0.0256 | -0.084 | -0.723 | -0.0884 | 0.0593 | -0.721 | 0.0407 | -0.0998 | 0.166 | -0.0429
4 | CAAGCAC | 0.0169 | 0.0158 | -0.304 | -0.0634 | 0.0483 | -0.661 | 0.124 | -0.0842 | -0.0629 | -0.0396
5 | ATCGCCA | -0.0247 | -0.111 | -0.0559 | -0.584 | 0.0888 | -0.404 | 0.0344 | 0.0345 | 0.0505 | 0.0776
6 | TAGCGGG | -0.0394 | 0.0332 | -0.0355 | 0.26 | -0.0671 | 0.185 | 0.108 | 0.0486 | -0.0523 | -0.0393
7 | AGCCCGG | 0.0529 | 0.0614 | 0.0992 | 0.828 | 0.045 | 1.14 | 0.072 | 0.0181 | -0.179 | 0.0576
8 | GAGGAGT | -0.0494 | -0.0654 | 0.439 | 1.29 | -0.137 | 1.56 | -0.14 | -0.086 | -0.0264 | -0.0328
9 | GGAATAT | 0.106 | 0.288 | 0.968 | 2.01 | 0.0815 | 2.24 | 0.244 | 0.143 | 0.202 | 0.247
10 | TCTGTTG | -0.0677 | -0.221 | -0.375 | -0.709 | 0.0687 | -1.13 | -0.0137 | 0.0151 | 0.00489 | -0.181
11 | ATGTTAT | -0.0444 | 0.0166 | 0.22 | -0.248 | 0.0618 | 0.0726 | -3.37 | 0.0726 | 0.142 | 0.145
12 | TGCAACT | -0.0225 | -0.0236 | 0.183 | -1.71 | -0.136 | 0.707 | -0.158 | 0.0979 | -0.109 | -0.0465
13 | GGAGATC | -0.00247 | 0.0764 | 0.722 | 1.73 | 0.0587 | 2.11 | 0.154 | 0.102 | 0.0402 | 0.166
14 | TCTTGAG | 0.133 | 0.0356 | -0.657 | -0.276 | 0.0923 | -1.14 | 0.195 | -0.0352 | 0.0267 | -0.0959
15 | GCTTGGA | -0.0855 | -0.0959 | 0.0883 | 0.39 | -0.125 | 0.0652 | -0.00292 | -0.0617 | 0.0554 | -0.102
16 | GGACGAA | 0.11 | 0.247 | 0.939 | 1.95 | 0.262 | 2.26 | 0.27 | 0.102 | 0.168 | 0.378
17 | ATGTTGG | 0.0541 | -0.0123 | -0.371 | -0.268 | 0.0678 | -0.969 | 0.244 | 0.102 | 0.119 | -0.0434
18 | ACTCCTG | 0.00632 | -0.0803 | -0.278 | -0.217 | -0.0311 | -0.552 | 0.0649 | 0.0612 | 0.0251 | -0.0043
19 | CGTTCAA | -0.0441 | -0.0812 | 0.0528 | 0.0806 | -0.129 | -0.314 | -0.19 | -0.0776 | 0.0528 | 0.000486
20 | CCGGCCA | 0.111 | 0.0633 | 0.119 | -0.105 | 0.055 | 0.106 | 0.0675 | 0.108 | 0.128 | 0.0775
21 | GCTCCGG | 0.0108 | 0.0275 | 0.509 | 1.36 | 0.0089 | 1.7 | 0.158 | 0.143 | 0.0301 | -0.0239
22 | AAGGTCA | 0.0246 | 0.0636 | 0.107 | -0.0344 | -0.111 | 0.54 | -0.036 | 0.0111 | 0.0143 | 0.0535
23 | CGCCTCA | 0.0872 | 0.0175 | 0.0713 | -0.413 | 0.0485 | -0.0706 | -0.0506 | -0.0292 | 0.111 | 0.0881
24 | CAGTTCC | 0.126 | 0.0456 | 0.23 | 0.0486 | 0.115 | 0.312 | -2.58 | 0.167 | 0.212 | 0.126
25 | AGCAAAC | -0.065 | 0.0666 | 0.0373 | 0.0516 | 0.0555 | -0.0447 | -0.0703 | -0.013 | -0.0232 | 0.0718
26 | AAAATTG | -0.0108 | -0.0385 | -0.572 | -0.693 | -0.0475 | -1.15 | 0.122 | 0.0768 | -0.0566 | -0.058
27 | GAGATCG | -0.0133 | 0.105 | -0.567 | -0.285 | -0.068 | -0.701 | 0.196 | -0.0061 | -0.00941 | -0.0481
28 | CGGTGGC | 0.119 | 0.00628 | 0.159 | 0.319 | 0.0522 | 0.0258 | 0.175 | -0.137 | -0.085 | 0.00724
29 | ACCATCT | -0.0628 | -0.063 | -0.532 | -2.32 | 0.0291 | -1.09 | -0.0229 | -0.116 | -0.13 | -0.145
30 | GCTCCTT | 0.0749 | -0.000612 | 0.193 | -0.685 | 0.0774 | 0.427 | -0.0413 | 0.112 | 0.0838 | 0.0987
